Measured values as given in PMC4336329 (PLoS ONE, 2015).
The campaign covered roughly 310,000 compounds. About 14,000 (4.5%) showed an effect of 50% or more. Effects have a minus sign here. The list shows a part of the results. Where a SMILES comes first, the peptide text is derived from it.

These compounds were tested against human ether-à-go-go-related gene (hERG) potassium channel (human, UniProt Q12809) (assay: primary screen, population patch clamp on CHO cells stably expressing hERG).
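Further: peak tail current of the secondary pulse compared with the same well before compound.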

human ether-à-go-go-related gene (hERG) potassium channel, sequence (Q12809 whole entry, looked up): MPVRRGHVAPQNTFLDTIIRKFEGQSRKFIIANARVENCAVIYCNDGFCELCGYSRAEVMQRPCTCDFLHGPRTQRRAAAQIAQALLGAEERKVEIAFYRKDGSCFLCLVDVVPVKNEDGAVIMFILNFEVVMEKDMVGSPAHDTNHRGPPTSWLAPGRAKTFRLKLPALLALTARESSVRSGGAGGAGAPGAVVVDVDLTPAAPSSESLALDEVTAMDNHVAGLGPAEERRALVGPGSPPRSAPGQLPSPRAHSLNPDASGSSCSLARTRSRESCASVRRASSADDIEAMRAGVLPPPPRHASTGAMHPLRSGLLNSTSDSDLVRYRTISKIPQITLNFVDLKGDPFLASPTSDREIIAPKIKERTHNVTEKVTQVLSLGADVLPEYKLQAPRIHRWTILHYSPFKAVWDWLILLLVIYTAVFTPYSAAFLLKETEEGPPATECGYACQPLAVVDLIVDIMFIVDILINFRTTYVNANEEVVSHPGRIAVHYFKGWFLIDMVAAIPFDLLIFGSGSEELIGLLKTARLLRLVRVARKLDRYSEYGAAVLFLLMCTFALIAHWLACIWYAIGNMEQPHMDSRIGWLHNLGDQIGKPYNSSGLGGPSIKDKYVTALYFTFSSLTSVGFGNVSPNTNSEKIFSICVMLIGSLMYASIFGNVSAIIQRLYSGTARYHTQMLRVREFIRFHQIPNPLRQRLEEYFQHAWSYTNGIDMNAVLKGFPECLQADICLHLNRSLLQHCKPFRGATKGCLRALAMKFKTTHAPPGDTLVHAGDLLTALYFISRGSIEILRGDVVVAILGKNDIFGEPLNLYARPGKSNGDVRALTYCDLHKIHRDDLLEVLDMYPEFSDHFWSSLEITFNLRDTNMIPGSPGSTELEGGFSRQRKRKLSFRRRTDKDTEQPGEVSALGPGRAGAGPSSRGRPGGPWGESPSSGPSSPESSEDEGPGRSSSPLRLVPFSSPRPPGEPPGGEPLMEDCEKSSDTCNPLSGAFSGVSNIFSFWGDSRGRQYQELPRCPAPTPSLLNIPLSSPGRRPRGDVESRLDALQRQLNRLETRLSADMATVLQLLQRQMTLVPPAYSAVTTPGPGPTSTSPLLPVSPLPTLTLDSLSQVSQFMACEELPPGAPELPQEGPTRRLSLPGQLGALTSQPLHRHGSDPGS

SMILES	hERG current change (%, negative = inhibition) at 10uM
Cc1c(C(=O)NCC2COc3ccccc3O2)oc2ccc(S(=O)(=O)N(C)C3CCCCC3)cc12 (centres unmarked)	6.73%
CCN(CC)CCN(C(=O)c1ccc(Br)s1)c1nc2cc3c(cc2s1)OCO3.Cl	-12%
Cn1cc(S(=O)(=O)Nc2ccc(Oc3ccccc3)cc2)c(=O)n(C)c1=O	4.83%
COc1cc(NC(=O)COC(=O)CNC(=O)c2ccc(C)cc2)c(C)cc1[N+](=O)[O-]	-8.81%
CN(C)c1ccc(/C=N/N2CCN(Cc3ccccc3Cl)CC2)cc1	13.3%
CCC(=O)N1CCc2cc(S(=O)(=O)CCC(=O)N3CCCC(C)C3)ccc21 (centres unmarked)	-1.71%
Cc1ccccc1OCC(=O)Nc1ccc(N2CCN(S(C)(=O)=O)CC2)cc1	-3.82%
CCOC(=O)c1ccc(-n2cc(C(=O)c3cccnc3)nn2)cc1	19.4%
CCc1ccc(NC(=O)CSCCN2C(=O)c3ccccc3C2=O)cc1	-14.6%
CCOc1cc(NC(=O)c2cnccn2)c(OCC)cc1NC(=O)c1cccc(F)c1	1.09%
O=S(=O)(c1cccc(-c2csc(-c3cccnc3)n2)c1)N1CCCCC1	-13%
Fc1cccc(CCN2CCNC[C@H]2Cc2cccc3ccccc23)c1	-16.9%
O=C(NCCO)/C(=C/c1cccc([N+](=O)[O-])c1)NC(=O)c1ccco1	26.5%
Cc1ccc(NC(=O)C(CC(C)C)NC(N)=O)cc1Cl (centres unmarked)	-18%
COc1ccc(-n2c(=S)[nH]c3sc(-c4ccccc4)cc3c2=O)c(OC)c1	-7.84%
Cc1ccc(N(C)C2=NC(=O)CS2)cc1Cl	10.5%
O=C(CCc1ccccc1)N=C1SC2CS(=O)(=O)CC2N1Cc1ccccc1 (centres unmarked)	16%
Cc1ccc(NC(=O)CN2C(=O)S/C(=C\c3ccccn3)C2=O)cc1	23.3%
CCOc1ccccc1-n1nnnc1SCC(=O)NCc1ccco1	5.25%
c1ccc(OCC2CO2)cc1 (centres unmarked)	18.1%
CNC1(c2nnnn2-c2c(C)cccc2C)CCOC(C)(C)C1 (centres unmarked)	8.99%
O=C(CCc1ccccc1)Nc1nccs1	14.9%

SMILES	hERG current change (%, negative = inhibition) at 10uM
CS(=O)(=O)N1N=C(c2cccs2)CC1c1ccco1 (centres unmarked)	-4.01%
CN1CCN(C(=S)Nc2ccc(Cl)cc2)CC1	5.64%
O=c1cc(N2CCCCC2)c(-c2ccccc2)nn1Cc1ccc(Cl)cc1	-1.99%
CC(NS(=O)(=O)c1ccc(OCC(=O)N2CCCC2)cc1)c1ccccc1 (centres unmarked)	2.97%
CCN(CC)S(=O)(=O)c1cc([N+](=O)[O-])ccc1NNC(=O)Nc1ccc(Cl)c(Cl)c1	13%
COC(=O)c1ccc(C2c3c(oc4cc(C)c(C)cc4c3=O)C(=O)N2CCCN(C)C)cc1 (centres unmarked)	-5.61%
O=C(CCC1CCN(C(=O)Cc2c(F)cccc2F)CC1)NC1CC1	11.9%
COc1ccc(C(=S)N2CCN(S(=O)(=O)c3ccccc3)CC2)cc1	-5.63%
CC(C)N(C(=S)Nc1cc(S(=O)(=O)N2CCOCC2)ccc1Cl)c1ccccc1	-14%
Cc1cc(C)n2cc(CSCc3ccccc3)nc2n1	-36.9%
COc1ccc(C)cc1NS(=O)(=O)c1ccc2c(c1)n(C)c(=O)n2C	-10.8%
COc1ccccc1N1CCN(c2cc(=O)n(Cc3ccc(F)cc3)c(=O)[nH]2)CC1	9.47%
Cc1ccc(S(=O)(=O)N2CCN(C)CC2)c(C)c1	11.8%
COc1ccc(N/N=C(/C#N)S(=O)(=O)c2nsc(C)c2C#N)cc1	-5.1%
CC(C)n1c(NCc2c[nH]c3ccccc23)nc2ccccc21	-25.6%
CCCCCCC1CC(CC(=O)Nc2ccc([N+](=O)[O-])cc2)C(=O)O1 (centres unmarked)	-12.4%
COc1cc(NC(=S)NCCc2ccccc2)c(OC)cc1NC(=O)CC(C)C	20.4%
CC(=O)NC(CC(C)C)C(=O)NC(CO)C(=O)NC(CCC(=O)O)C(=O)NC(C)C(=O)NC(CC(C)C)C(N)=O.O=C(O)C(F)(F)F (centres unmarked) (Ac-LSEAL-NH2; configuration not given here)	10.2%
CCOC(=O)NNS(=O)(=O)c1cc(Br)ccc1Br	6.21%
CCNc1nc(NCC)nc(N/N=C/c2ccc(O)c(OC)c2)n1	3.51%
NC(=O)c1ccccc1NC(=O)CC12CC3CC(CC(Br)(C3)C1)C2	16.9%
COc1ccc(NC(=S)NC2CCCCC2)cn1	17.2%

SMILES	hERG current change (%, negative = inhibition) at 10uM
O=C(Nc1cc(S(=O)(=O)Nc2ccc(Cl)cc2)ccc1O)c1ccc(S(=O)(=O)N2CCCCCC2)cc1	15.5%
CN(C(=O)C12CC3CC(CC(C3)C1)C2)C1CCS(=O)(=O)C1 (centres unmarked)	21%
Nc1nc2c(nc(N3CCCCC3)n2[C@@H]2O[C@H](CO)[C@@H](O)[C@H]2O)c(=O)[nH]1	10.1%
COc1cccc(/C=N/NC(=O)C(=O)NCc2cccnc2)c1	8.3%
CCCCCCCN1C2=NCCN2c2ccccc21.Cl	-79.6%
CC1CCN(S(=O)(=O)c2ccc(NC(=O)CCN3C(=O)c4ccccc4C3=O)cc2)CC1	-11.3%
O=S(=O)(N/N=C\c1ccc2c(c1)OCO2)c1ccccc1	7.03%
O=C(Cn1ccc2cc(S(=O)(=O)N3CCCC3)ccc21)NCc1ccco1	-5.95%
CCN(c1ccc(OCC(=O)OCC(=O)Nc2ccc(F)c(F)c2F)cc1)S(=O)(=O)c1ccccc1	1.63%
O=C(NCc1ccccc1)C(c1ccco1)N(C(=O)c1csnn1)c1ccccc1F (centres unmarked)	3.07%
Nc1ncc(Br)cc1S(=O)(=O)NC1CCCCC1	-30.3%
COc1ccc2c(COC(=O)CC3Sc4ccccc4NC3=O)cc(=O)oc2c1 (centres unmarked)	-44.1%
CCn1c(=O)n(CC(=O)NCC2CCCO2)c(=O)c2c3c(sc21)CCCC3 (centres unmarked)	-4.82%
CN(C(=O)Oc1ccc(C(C)(C)C)cc1)c1ccccc1	23.1%
CCOc1cc(C2/C(=C(\O)c3cc(C)ccc3C)C(=O)C(=O)N2CCN(C)C)ccc1O (centres unmarked)	-1.08%
Cc1ccc(S(=O)(=O)N(C)S(=O)(=O)c2ccc(C)cc2)cc1	-2.03%
Cc1cc(C(=O)N/N=C/c2cc(Br)ccc2OC(=O)c2ccccc2Cl)n[nH]1	13.4%
O=C1CC(C(=O)N2CCCc3ccccc32)CN1c1ccc(F)cc1 (centres unmarked)	-22.2%
CCc1nnc(NC(=O)CSc2nc3cccnc3n2C2CCCCC2)s1	-23.3%
Cc1cc(-c2ccccc2)nc2c(Br)c(C(=O)O)nn12	3.5%
CCCn1c(Cc2ccccc2)nnc1SCC(=O)N1CCOCC1	16.7%
O=C(O)CSc1nc2c(c(C(F)(F)F)n1)CCCC2	11.3%

SMILES	hERG current change (%, negative = inhibition) at 10uM
O=C(c1cccc(C(F)(F)F)c1)N1CCN(CCc2ccccc2)CC1	-47.8%
C#CCOCCOCCOCCNc1nc(N2CCN(C(=O)[C@H](Cc3ccc(O)cc3)n3cc(C(N)CC(C)C)nn3)CC2)nc(N2CCN(C(=O)[C@H](CCC(=O)O)n3cc(C(N)[C@H](C)CC)nn3)CC2)n1.Cl (some centres unmarked)	12.5%
CCc1ccc(CN(C)C(=O)c2cc(S(=O)(=O)N3CCOCC3)ccc2N2CCCC2)cc1	-50.1%
N#CCSc1nc2c(cc1C#N)CCCC2	-12.2%
O=c1[nH]c2ccc(Br)cc2c(-c2ccccc2)c1CN1CCOCC1	-65.7%
CC(=O)Nc1cccc(NC(=O)COC(=O)C2CC3CCCC(C2)C3=O)c1 (centres unmarked)	22.6%
Br.O=C(CN1C2=NCCN2c2ccccc21)c1ccc(Br)s1	-64.5%
COc1ccc(CC(=O)N2CC(=O)N(CCc3ccccc3)C(=O)C2)cc1	-24.8%
CC(=O)Nc1c(C)ccc2nsnc12	-4.08%
CNc1oc(-c2ccc(C)cc2)nc1P(=O)(c1ccccc1)c1ccccc1	-1.88%
CCOC(=O)C1(Cc2cccc(F)c2)CCN(C(=O)C2CCOCC2)CC1	-15%
CCCC(NCC(=O)Nc1cc(S(=O)(=O)N2CCOCC2)ccc1OC)c1ccccc1 (centres unmarked)	-21.4%
CC(C)(C)c1sc(N)nc1-c1ccccc1	4.66%
CCN(CC)S(=O)(=O)c1ccc(Cl)c(NC(=O)COc2ccc(OC)cc2[N+](=O)[O-])c1	27.4%
Nc1c(C(=O)CSc2nnc(Cc3ccccc3)o2)c(=O)[nH]c(=O)n1C1CC1	4.89%
O=C(OCc1cncs1)c1cccs1	14.3%
Cc1ccc(C)c(C(=O)COc2ccc(C)nc2[N+](=O)[O-])c1	6.8%
NNC(=O)c1ccc(O)cc1	5.24%
C=CCn1c(-c2ccccc2[N+](=O)[O-])n[nH]c1=S	17%
Cc1oc2c(F)c(F)c(F)c(F)c2c1S(=O)(=O)Nc1cccc(C(F)(F)F)c1	-43.7%
